Results from PubChem BioAssay AID493208 (National Center for Advancing Translational Sciences (NCATS), 2011).
Screen size: about 44,000 compounds; about 340 (0.77%) were called active. Roughly 5% stayed inconclusive and do not appear here. Calls come from the whole dose curve; as a rule, active = well fitted inhibition curve with a large enough effect; inconclusive = small, poorly fitted or top-dose-only effect; inactive = flat fitted curve, though single readings scatter. This is one part of the list.

assay: Acumen qHTS Assay for Inhibitors of the mTORC1 Signaling Pathway in MEF (Tsc2-/-, p53-/-) Cells: Sytravon; settings: phospho-rpS6 immunofluorescence/PI, 24 h; series mostly up to 38.3 µM; activity change, negative = inhibition: at the top concentration;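 note: plate controls were DMSO for no effect and rapamycin for full effect; nearly all actives have a fitted effect of over 50% in size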
How it was run: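 Readout is phospho-S6 Alexa 488 signal normalized to PI per well, reported as % active cells with thresholds set from rapamycin (7.5 nM) and DMSO controls. Cells: Tsc2-/-, p53-/- MEFs, 24 hrs compound at 37 C; PI cell number serves as viability.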

Activity change, negative = inhibition, inactive:
Clc1cccc(-n2ncc3c(N4CCC(Cc5ccccc5)CC4)ncnc32)c1 6.67%
Cc1cc(C)cc(NC(=O)C(=O)NCC(c2cccnc2)N2CCc3ccccc3C2)c1 (stereo not given) 3.66%
CCCCNC(=O)C1CCC(Cn2c(=O)c3sccc3n(CC(=O)N3CCCC3)c2=O)CC1 (stereo not given) -11.3%
O=C(Nc1cc(C(F)(F)F)ccc1Cl)c1nc2ccccc2nc1N1CCCCC1 -7.52%
CCc1ccccc1NC(=O)c1sc2nc3c(cc2c1N)CN(Cc1ccccc1)CC3 -10.4%
CCOC(=O)c1c(C)oc2nc(C)nc(NCc3ccc(OC)cc3OC)c12 -5.69%
O=C(CSc1nncn2c1cc1sccc12)Nc1ccc(Br)cc1F -2.48%
COC(=O)c1cccnc1-n1c(=O)c2cccnc2n(CC(=O)Nc2ccccc2F)c1=O -5.12%
O=C(Cn1c(=O)nc(-c2ccccc2)c2ccccc21)NCc1ccc(Cl)cc1 -15.8%
CCc1ccc(NC(=O)CCn2nc(C)c(S(=O)(=O)N3CCCCC3)c2C)cc1 -0.567%
CCOc1ccccc1NC(=O)C1CCN(S(=O)(=O)c2ccc3c(c2)CC(C)N3C(C)=O)CC1 (stereo not given) 1.29%
CCOc1ccc(Cn2c(CNS(=O)(=O)c3ccc(Cl)s3)nc3cccnc32)cc1 -24.7%
COc1cccc(N2CCN(S(=O)(=O)c3ccc(-n4cnnn4)cc3)CC2)c1 0.106%
COc1ccc2c(C)cc(SCC(=O)Nc3nsc(-c4ccccc4C)n3)nc2c1 2.97%
CCOC(=O)c1ccccc1NC(=O)Cn1c(=O)n(-c2cccc(C)c2)c(=O)c2c1c1cc(C)ccc1n2C -1.7%
O=C(NCC(c1ccc2c(c1)OCO2)N1CCOCC1)c1cccc(Cl)c1 (stereo not given) -2.52%
COc1cc(C2C(C(=O)Nc3ccccc3C)=C(C)Nc3ncnn32)ccc1OCC(N)=O (stereo not given) -19%
Cc1ccc(NC(=O)CSc2ccc(-c3cccs3)nn2)cc1Cl -4.26%
CN(c1ccccc1)S(=O)(=O)c1ccc(NC(=O)c2cc(=O)c3ccccc3o2)cc1 -5.82%
COCC(=O)NCc1nc2cccnc2n1Cc1ccc(F)cc1 1.28%
Cc1oc(C)c2c(=O)cc(-c3ccc4c(c3)OCO4)cc(OC(=O)c3cccc(Br)c3)c12 4.38%
O=C(CCn1cnnn1)Nc1ccc(F)cc1 1.71%
COc1ccc(-n2ncc(C(=O)NCCc3ccsc3)c2C2CCN(C(=O)OC(C)(C)C)CC2)cc1 -0.188%
Cc1ccc(Cn2c(CNS(=O)(=O)c3ccc(F)c(Cl)c3)nc3cccnc32)cc1 -16.9%
Cc1noc(-c2ccc(N3CCCCC3)c([N+](=O)[O-])c2)n1 0.355%
CC(=O)Nc1ccc2nc3c(=O)[nH]c(=O)[nH]c3nc2c1 -14.7%
Cc1ccccc1CCNC(=O)c1ccc2c(c1)nc1n2CCC(C)C1 (stereo not given) 4.05%
COc1ccccc1C1Nc2ccccc2-n2c(-c3ccccc3)c3c(=O)n(C)c(=O)n(C)c3c21 (stereo not given) 2.66%
COc1ccc(-c2noc(-c3ccc(N4CCN(c5ccccc5)CC4)c([N+](=O)[O-])c3)n2)cc1OC -11.2%
CCOC(=O)C1(C)C=C(Nc2cccc(C(=O)O)c2)C(=O)N1c1cccc(C(=O)O)c1 (stereo not given) 5.11%
CCCCc1nn2c(=O)cc(COC(=O)c3ccc(NC(=O)c4ccccc4C)cc3)nc2s1 0%
Cc1ccc(CNS(=O)(=O)c2ccc3[nH]c4c(c3c2)CCCC4)cc1 -15.3%
Cc1cc(F)ccc1NS(=O)(=O)c1ccc(-n2cccn2)cc1 -4.64%
O=C1CS(=O)(=O)C2(C(=O)N(Cc3ccccc3)c3ccccc32)N1c1ccccc1 (stereo not given) 2.24%
COc1ccc(OC)c(CNC(=O)Cc2ccc(NC(=O)N3CCSc4ncccc43)cc2)c1 0.336%
Cc1ccc(CCNC(=O)c2ccc3c(c2)nc2n3CCC(C)C2)cc1 (stereo not given) -15.1%
COc1cc2c(cc1OC)C(COc1ccccc1OC)N(C(=O)COc1ccc(Cl)cc1)CC2 (stereo not given) -0.636%
Cc1cc(C)n(CCc2nc3c4ccccc4nc(N4CCN(c5ccccc5)CC4)n3n2)n1 -5.04%
COc1cccc(CNC(=O)C2CCCCN2S(=O)(=O)c2ccc(F)cc2)c1 (stereo not given) -19.6%
Cc1ccc(S(=O)(=O)c2nnn3c2nc(N2CCN(c4ccccc4F)CC2)c2cc(Cl)ccc23)cc1C -0.0789%
O=C(c1ccc2c(c1)N(Cc1cccc(F)c1)C(=O)c1ccccc1S2)N1CCOCC1 -7.5%
CC(=O)N1c2c(cc(Br)cc2S(=O)(=O)N2CCN(c3cc(C)ccc3C)CC2)CC1C (stereo not given) 2.81%
Cc1ccccc1CN1C(=O)c2ccccc2S(=O)c2ccc(C(=O)NC3CCC(C)CC3)cc21 (stereo not given) 0.763%
Cc1ccc(S(=O)(=O)c2nnn3c2nc(N2CCCC2)c2sccc23)cc1C 0.497%
CC1=C(C#N)C(NC(=O)c2ccccc2Cl)(C(F)(F)F)C(=O)N1 (stereo not given) -0.0651%
CCc1ccc(NC(=O)c2sc3nc(C)c(Cl)c(C)c3c2NC(=O)c2ccccc2OC)cc1 7.45%
COc1ccc(OC)c(NC(=O)C2=C(C)C(=O)OC23CCCCCC3)c1 -7.39%
Cc1ccc(CN(C(=O)COc2ccc([N+](=O)[O-])cc2)c2ccccn2)cc1 -11.5%
CCN(CC)CCCNC(=O)c1cn(C)c2ccc(S(=O)(=O)N(C)C3CCCCC3)cc2c1=O -0.323%
CCN(CC)CCCNC(=O)c1cnc(SC)nc1-c1ccccc1 -1.67%
Cc1ccc2c(=O)cc(C(=O)Nc3nc4ccc(Cl)cc4s3)oc2c1C 3.97%
CCOCCc1nn2c(=O)cc(COC(=O)CNC(=O)c3cccc(C)c3)nc2s1 0%
O=C(COc1ccc(Cl)cc1)Nc1nnc(S(=O)(=O)N2CCc3ccccc32)s1 6.69%
COc1cccc(-c2ncnn2-c2sc3c(c2C#N)CCCCC3)c1OC -0.579%
CCN(C(=O)CSc1nc2ncccc2[nH]1)c1ccc(C(C)C)cc1 -4.95%
COc1ccc(CNc2nc3c(-c4cccc(C)c4)nnn3c3ccccc23)cc1 2.39%
Cc1nn(CC(=O)N2CCC(C)CC2)c(=O)c2cc3sccc3n12 -7.61%
CCOc1ccc(CCNC(=O)c2cn(C)c3ccc(S(=O)(=O)N4CCCCCC4)cc3c2=O)cc1OCC -1.78%
CC(C)c1ccc(NC(=O)Cn2cc(S(=O)(=O)N3CCN(c4ccccc4F)CC3)c3ccccc3c2=O)cc1 -8.29%
COc1ccccc1NC(=O)c1c(NCc2ccc(OC)c(OC)c2OC)sc2c1CCC2 -14.6%
CCOC(=O)c1c(C)[nH]c(C)c1S(=O)(=O)N(C)CC(=O)N1CCN(c2ccccc2)CC1 -0.562%
Cc1cc(Cl)ccc1OCc1nc(-c2ccc(-n3cccc3)cc2)no1 6.34%
CCCCOC(=O)c1ccc(NC(=O)c2cc3c(=O)n4cccc(C)c4nc3s2)cc1 1.38%
CCOc1ccc(N2CC(c3nc4ccccc4n3CCCOc3ccccc3)CC2=O)cc1 (stereo not given) -4.88%
Cc1c(C(=O)NCC(c2ccc(Cl)cc2)N2CCOCC2)oc2ccccc12 (stereo not given) 1.54%
CCCNC(=O)CCc1nnc2ccc(N3CCN(c4cccc(OC)c4)CC3)nn12 -0.983%
CCCCN(C)CCNC(=O)c1c2c(nc3ccccc13)C(=O)N(C1CCCCC1)C2 5.8%
CCC(=O)N1CCc2cc(Br)cc(S(=O)(=O)CCC(=O)NCCc3cccc(C)c3)c21 1.81%
Cc1ccc(NC(=O)CCn2c(=O)c3cccn3c3ccccc32)cc1C 2.13%
Cc1ccc(-n2c(=O)c3cccnc3n2CC(=O)Nc2ccc(Br)cc2)cc1C -0.129%
CC(Oc1ccc(F)cc1)C(=O)N1CCC(c2nc3ccccc3s2)CC1 (stereo not given) -10.3%
Cn1ncc2c(N3CCN(c4cccc(Cl)c4)CC3)ncnc21 14%
CCOC(=O)N1CCc2c(sc(NCc3sccc3C)c2C(=O)Nc2ccc(OC)cc2OC)C1 1.43%
Cc1cc(C)cc(NC(=O)C(Cc2ccccc2)NS(=O)(=O)c2ccc3c(c2)c(=O)n(C)c(=O)n3C)c1 (stereo not given) -13.2%
COc1ccc(C)cc1NC(=O)CCS(=O)(=O)c1cc2c3c(c1)CCN3C(=O)CC2 1.8%
CCOc1ccc(Oc2nc(NCC(C)C)nc(N3CCOCC3)n2)nn1 -0.624%
COc1cccc(CNC(=O)C(=O)NCC(c2ccco2)S(=O)(=O)c2cccs2)c1 (stereo not given) -4.68%
CC(=O)N1CCc2cc(CNC(=O)Cc3ccc(F)cc3)ccc21 -2.22%
CCOc1ccccc1CNC(=O)C1CCN(C(=O)N2CC(CC)Oc3ccc(C)cc32)CC1 (stereo not given) 8.22%
O=C(/C=C/c1ccccc1)N1CCN(Cc2cc(=O)n3nc(-c4ccccc4F)sc3n2)CC1 -24.7%
CC(C)(C)C(=O)Cn1c(=O)n(-c2ccc(Cl)cc2)c(=O)c2c3c(sc21)CCCC3 -2.05%
COc1ccc(N2CC(NC(=O)/C=C\c3ccccc3)CC2=O)cc1 (stereo not given) -0.299%
O=C(Cn1c(SCCOc2ccccc2)nc2ccccc21)N1CCOCC1 -10.7%
Cc1cc(OCCn2cc(C(=O)c3cccs3)c3ccccc32)ccc1Cl -9.46%
O=C(Nc1ccc2nc(SCC(=O)N3CCOCC3)sc2c1)c1cccc(Cl)c1 -12%
COc1ccc(NC(=O)Cn2c(=O)n(CCC(=O)NCc3ccccc3OC)c(=O)c3ccccc32)cc1Cl -4.77%
Cc1ccc(Cn2ccn(Cc3ccccc3F)c(=O)c2=O)cc1 0%
COc1ccc(Cl)cc1N(C)C(=O)c1ccc2c(=O)n3c(nc2c1)CCCCC3 -7.46%
Cc1c(Cl)cccc1NC(=O)COCc1cc(-c2ccc3c(c2)OCO3)on1 -13.1%
COc1cccc(CNC(=O)CCc2c(C)nc3c(c(C)nn3-c3ccc(C)c(C)c3)c2C)c1 -2.46%
Cc1nc2c(-c3ccccc3)c(C)nn2c(C)c1CCC(=O)N1CCN(c2ccc(F)cc2)CC1 -6.27%
Cc1cccc(N2CCN(CCCNc3ncnc4onc(-c5ccc(Cl)cc5)c34)CC2C)c1 (stereo not given) 5.43%
CSc1ccc(CCNC(=O)c2ccc(-c3nc(COc4ccccc4)c(C)o3)cc2)cc1 -8.3%
COc1ccc(CCNC(=O)CCn2c(=O)c3ccccc3n(Cc3cc(C)ccc3C)c2=O)cc1OC -9.25%
Cc1cccc(NC(=O)c2ccc3snnc3c2)c1 -0.272%
